From ChEMBL document CHEMBL4888484, “Replenishing the malaria drug discovery pipeline: Screening and hit evaluation of the MMV Hit Generation Library 1 (HGL1) against asexual blood stage Plasmodium falciparum ,using a nano luciferase reporter read-out” (2022) come the findings set out here.

About 540 (0.36%) of roughly 150,000 compounds showed an effect of 50% or more. Some of the results follow.

For this test, the system named is Plasmodium falciparum. Description: Primary screen in NF54 nanoGlo assay, in single point, at 2uM, 72h; a lower Z score goes with more inhibition. The test is classed as functional, Erythrocyte. The note with it: timepoint 72 hour.
Turning to `CN1CC[C@H](C(=O)Nc2cccnc2Oc2ccccc2)CC1=O`, the “% Inhibition” value is given as -15% and the Z score is reported as 1.78.

As for `Cc1nnsc1CN(C)C(=O)c1sc(C(C)C)nc1C`, the “% Inhibition” value was -11% and the Z score was 1.28.

On to `COC(=O)c1ccc(C(=O)N2CCC(N3C(=O)COCC3=O)CC2)cc1`, for which the “% Inhibition” value was determined as 15% and the Z score is recorded as -1.96.

Turning to `O=C(OCC(=O)N1CCCC1)[C@H]1CCCN(c2nccs2)C1`, the “% Inhibition” value is -4% and the Z score was 0.37.

As for `COc1cccc(NC(=O)c2ccccc2C(=O)OCCN2CCOCC2)c1`, the “% Inhibition” value worked out at 38% and the Z score is given as -1.5.

For the compound `CCCN1CCN(C(=O)c2cccc(N3CCN[C@H](c4ccccc4)C3)n2)CC1`, the “% Inhibition” value is 8% and the Z score was -0.76.

As for `Cc1nc(N2CCC(CNC(=O)[C@H]3CCOC3)CC2)c2ccsc2n1`, the “% Inhibition” value came to 6% and the Z score is given as -1.19.

Turning to `CCC1(CO)CCN(C(=O)C2=Cc3ccccc3[C@H]2C)CC1`, the “% Inhibition” value was -6% and the Z score worked out at 0.68.

For `COC[C@H]1CN(C2CCC2)CC12CCN(C(=O)CCc1ccc(OC)cc1)CC2`, the “% Inhibition” value is listed as -9% and the Z score was 1.08.

As to `CN(Cc1cccn1C)C(=O)NC1CCCCC1`, the “% Inhibition” value was -7% and the Z score stood at 1.23.

In the case of `c1nc(-c2ccc3c(c2)OCO3)n(C2CCCCC2)n1`, the “% Inhibition” value is listed as -6% and the Z score was 0.81.

Consider `CCN(C(=O)NC(C)CCc1ccc(OC)cc1)C(C)C(C)C` (stereo unspecified), for which the “% Inhibition” value is reported as -3% and the Z score worked out at 0.28.

For the compound `Cc1nn(-c2ccc(Cl)c(Cl)c2)c(NC(=O)c2ccncc2Cl)c1C`, the “% Inhibition” value is given as -5% and the Z score came to 0.61.

By % Inhibition is commonly meant the change of the read-out against control, counted positive when it falls.
